{"source": "paper PMC6212790", "note": "The other results are listed elsewhere or left out. At the low end of the ranking the order means little.", "data": [{"target": "T1, GST-Rok (full length) (UniProt O34857)", "T1 sequence": "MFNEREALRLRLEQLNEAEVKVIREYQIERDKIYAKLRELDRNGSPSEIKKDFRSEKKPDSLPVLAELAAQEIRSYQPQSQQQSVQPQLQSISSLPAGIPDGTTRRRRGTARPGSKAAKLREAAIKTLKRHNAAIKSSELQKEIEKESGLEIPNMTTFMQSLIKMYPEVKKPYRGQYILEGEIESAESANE", "assay": "protein binding microarray;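 also: rank score from −0.5 (least bound) to 0.5 (best bound)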", "details": "Rok is a gene silencer of Bacillus subtilis; high values mean tight binding; most listed sequences are background and not binding sites; double strand, one strand shown", "units": {"binding signal": "E-score"}, "values": [{"sequence": "AAGGGTGA", "binding signal": -0.268}, {"sequence": "AAAGCAAA", "binding signal": 0.0849}, {"sequence": "AAATACCG", "binding signal": 0.333}, {"sequence": "ATAACATA", "binding signal": 0.365}, {"sequence": "ATATGGTG", "binding signal": 0.0966}, {"sequence": "TTCGTAAA", "binding signal": 0.145}, {"sequence": "AGCCTTTG", "binding signal": -0.148}, {"sequence": "ATGTTAAA", "binding signal": 0.185}, {"sequence": "ATCAGTGC", "binding signal": 0.00437}, {"sequence": "TATCAATA", "binding signal": 0.343}, {"sequence": "ATCGGGAG", "binding signal": 0.0139}, {"sequence": "CCTGGAAA", "binding signal": -0.077}, {"sequence": "AACGATGG", "binding signal": 0.125}, {"sequence": "GTGCACTA", "binding signal": 0.131}, {"sequence": "GTGACAGA", "binding signal": -0.439}, {"sequence": "ATCCAGAG", "binding signal": -0.133}, {"sequence": "GTAACTAC", "binding signal": 0.394}, {"sequence": "CATCCGGC", "binding signal": -0.275}, {"sequence": "CCGAGGCC", "binding signal": -0.193}, {"sequence": "GCGCAGAC", "binding signal": -0.232}, {"sequence": "CTTGACGC", "binding signal": -0.252}, {"sequence": "GAATATTA", "binding signal": 0.0406}, {"sequence": "AAAAGGCT", "binding signal": -0.189}, {"sequence": "ATATACTA", "binding signal": 0.409}, {"sequence": "AAATCTCA", "binding signal": 0.0339}, {"sequence": "CATAAACA", "binding signal": 0.159}, {"sequence": "CTGGAGGC", "binding signal": -0.152}, {"sequence": "AGTCAAAT", "binding signal": -0.0451}, {"sequence": "ATTGTGTG", "binding signal": 0.103}, {"sequence": "CCTGAATC", "binding signal": -0.225}, {"sequence": "GAGGTCTA", "binding signal": -0.168}, {"sequence": "ACCTGGAA", "binding signal": 0.0618}, {"sequence": "GTGCCCGA", "binding signal": -0.167}, {"sequence": "ATGTCCGG", "binding signal": -0.00967}, {"sequence": "AGCATAAA", "binding signal": 0.211}, {"sequence": "CAGGGCCG", "binding signal": -0.319}, {"sequence": "AGGCCAAG", "binding signal": -0.151}, {"sequence": "CCTGACTC", "binding signal": -0.309}, {"sequence": "CCGAGGAA", "binding signal": -0.198}, {"sequence": "CGTGGCAG", "binding signal": -0.241}, {"sequence": "GGTCGTAC", "binding signal": -0.00438}, {"sequence": "CAATAGAC", "binding signal": 0.089}, {"sequence": "ACATGTGG", "binding signal": 0.0813}, {"sequence": "GCTCTACC", "binding signal": 0.0868}, {"sequence": "TAAGCTAA", "binding signal": 0.0385}, {"sequence": "ATGCTACA", "binding signal": 0.184}, {"sequence": "GAAATAAA", "binding signal": 0.221}, {"sequence": "ATAGCTGC", "binding signal": 0.0654}, {"sequence": "AACGTCTT", "binding signal": -0.0871}, {"sequence": "CTACGTTC", "binding signal": 0.00208}, {"sequence": "ACGGTCTG", "binding signal": -0.0535}, {"sequence": "GATGCGAA", "binding signal": -0.102}, {"sequence": "CGACGTAA", "binding signal": 0.153}, {"sequence": "AAAAGGAC", "binding signal": -0.19}, {"sequence": "CAACACCC", "binding signal": -0.168}, {"sequence": "ATCTGGTC", "binding signal": -0.135}, {"sequence": "GAAGCTCC", "binding signal": -0.26}, {"sequence": "ATTAAAAA", "binding signal": -0.0974}, {"sequence": "ATTGTGGA", "binding signal": 0.0456}, {"sequence": "TAGTGAGA", "binding signal": 0.0866}, {"sequence": "ATCTTAAA", "binding signal": 0.0772}, {"sequence": "CTATAGAC", "binding signal": 0.152}, {"sequence": "CCACGCAC", "binding signal": -0.277}, {"sequence": "GCACGACC", "binding signal": -0.0837}, {"sequence": "ACAACAAT", "binding signal": 0.203}, {"sequence": "GGGTGCAA", "binding signal": 0.0782}, {"sequence": "AGGTAATG", "binding signal": 0.206}, {"sequence": "CTAGTCTC", "binding signal": 0.0165}, {"sequence": "GCGGGGGA", "binding signal": -0.288}, {"sequence": "ATAGTCGC", "binding signal": 0.0388}, {"sequence": "TCGGTTCA", "binding signal": -0.248}, {"sequence": "CTCAGATA", "binding signal": 0.0362}, {"sequence": "TATTCTCA", "binding signal": 0.0885}, {"sequence": "CGTAGCGA", "binding signal": 0.0631}, {"sequence": "GTACTAGA", "binding signal": 0.29}, {"sequence": "CATCGCGG", "binding signal": -0.0129}, {"sequence": "AACGCCGG", "binding signal": -0.187}, {"sequence": "TCTACCCA", "binding signal": 0.264}, {"sequence": "ACTATCTC", "binding signal": 0.128}, {"sequence": "GATTCTAC", "binding signal": 0.393}, {"sequence": "GACTGTCA", "binding signal": -0.0917}, {"sequence": "GCGGGCCC", "binding signal": -0.419}, {"sequence": "CTGCATCA", "binding signal": -0.0198}, {"sequence": "ACTTACAG", "binding signal": -0.0639}, {"sequence": "ATACGAGC", "binding signal": 0.0276}, {"sequence": "ACCATACC", "binding signal": 0.107}, {"sequence": "AGCTATTA", "binding signal": 0.283}, {"sequence": "ATCCGCGG", "binding signal": -0.227}, {"sequence": "AACATACG", "binding signal": 0.205}, {"sequence": "CAACCGTA", "binding signal": 0.00203}, {"sequence": "CCCTTGAG", "binding signal": -0.161}, {"sequence": "GGAGTGAC", "binding signal": -0.203}, {"sequence": "ATTGGACC", "binding signal": -0.304}, {"sequence": "GGACTAAC", "binding signal": 0.00668}, {"sequence": "GCCCTGAA", "binding signal": -0.222}, {"sequence": "CCTTAAGC", "binding signal": -0.334}, {"sequence": "GCCAATCC", "binding signal": -0.218}, {"sequence": "AAAATAAA", "binding signal": 0.199}, {"sequence": "GCATTGCA", "binding signal": 0.0318}, {"sequence": "CGTTATAC", "binding signal": 0.169}, {"sequence": "GTTGCGAA", "binding signal": -0.0232}, {"sequence": "ACCGCAAT", "binding signal": 0.0964}, {"sequence": "CAAGCTTA", "binding signal": 0.0259}, {"sequence": "GATGGAAC", "binding signal": -0.124}, {"sequence": "CGTGGGCC", "binding signal": -0.305}, {"sequence": "AAACTACT", "binding signal": 0.484}, {"sequence": "AGCGTGAT", "binding signal": 0.0986}, {"sequence": "AGAGGTTA", "binding signal": -0.129}, {"sequence": "CTAGCGCA", "binding signal": 0.0524}, {"sequence": "AACGATCG", "binding signal": -0.0101}, {"sequence": "AGCTGCCC", "binding signal": -0.203}, {"sequence": "CATATATC", "binding signal": 0.25}, {"sequence": "AGTTTCCG", "binding signal": 0.198}, {"sequence": "ACATTATG", "binding signal": 0.228}, {"sequence": "AAATTATT", "binding signal": 0.296}, {"sequence": "CAAATATG", "binding signal": 0.194}, {"sequence": "CTCAACTA", "binding signal": 0.13}, {"sequence": "TAAGTACA", "binding signal": 0.227}, {"sequence": "CAGCTGAA", "binding signal": -0.0939}, {"sequence": "TTAAACAA", "binding signal": -0.0973}, {"sequence": "CGTAAGTC", "binding signal": -0.0903}, {"sequence": "CCAGGAAG", "binding signal": -0.0422}, {"sequence": "GAAACCGC", "binding signal": -0.174}, {"sequence": "AGCGACGC", "binding signal": -0.14}, {"sequence": "CCTATCCC", "binding signal": -0.299}, {"sequence": "TAGCCATA", "binding signal": 0.145}, {"sequence": "AAGAAAAC", "binding signal": -0.217}, {"sequence": "ATAGTTGC", "binding signal": 0.306}, {"sequence": "AGTACGCC", "binding signal": -0.149}, {"sequence": "CTACGCTA", "binding signal": 0.27}, {"sequence": "GTACGGCA", "binding signal": -0.048}, {"sequence": "CTTGATAC", "binding signal": 0.0975}, {"sequence": "AACTACAT", "binding signal": 0.419}, {"sequence": "CGTTAACA", "binding signal": -0.0142}, {"sequence": "AGGTGGGC", "binding signal": -0.369}, {"sequence": "GCGGTAGC", "binding signal": 0.0476}, {"sequence": "ATCAGATA", "binding signal": 0.0946}, {"sequence": "CCGGAAAG", "binding signal": -0.182}, {"sequence": "ACGTTCAA", "binding signal": -0.0397}, {"sequence": "AATCATCG", "binding signal": 0.01}, {"sequence": "CCGAGAGG", "binding signal": -0.343}, {"sequence": "CTCAGCGC", "binding signal": 0.0572}, {"sequence": "CTTCGATC", "binding signal": -0.0236}, {"sequence": "ATATGGAA", "binding signal": 0.231}, {"sequence": "ATTTGCCG", "binding signal": -0.0552}, {"sequence": "CAGCACAA", "binding signal": 0.0381}, {"sequence": "AATGCAAT", "binding signal": 0.133}, {"sequence": "AGACTCTC", "binding signal": -0.122}, {"sequence": "GTTAGCAA", "binding signal": 0.209}, {"sequence": "ACGCTTGC", "binding signal": -0.1}, {"sequence": "AGGCATTA", "binding signal": 0.169}, {"sequence": "CATGCGAA", "binding signal": 0.0273}, {"sequence": "CAAATAGA", "binding signal": 0.108}, {"sequence": "ACGATCAC", "binding signal": -0.178}, {"sequence": "CCGAGCGA", "binding signal": -0.357}, {"sequence": "GGTATACC", "binding signal": 0.102}, {"sequence": "GCTGAGTA", "binding signal": -0.0132}, {"sequence": "CTGGACCC", "binding signal": -0.459}, {"sequence": "GACTGTGA", "binding signal": -0.112}, {"sequence": "AGAATCCA", "binding signal": -0.0315}, {"sequence": "ATATATTG", "binding signal": 0.372}, {"sequence": "CTATACGC", "binding signal": 0.0736}, {"sequence": "GGATGGAC", "binding signal": -0.287}, {"sequence": "CAGGATGC", "binding signal": -0.0958}, {"sequence": "CCATAAGG", "binding signal": -0.156}, {"sequence": "CGCAGGAC", "binding signal": -0.311}, {"sequence": "CCTAATTC", "binding signal": 0.0288}, {"sequence": "AGATATGA", "binding signal": 0.175}, {"sequence": "AGAAGCTA", "binding signal": 0.0762}, {"sequence": "ATGCCTGG", "binding signal": -0.103}, {"sequence": "AGAACGAC", "binding signal": 0.113}, {"sequence": "CCGTGGGA", "binding signal": -0.235}]}]}
